# Test results from US20230050148A1, “TGF-BETA INHIBITORS AND USE THEREOF” (SCHOLAR ROCK, INC., priority 2020, published 2023).
# B1: Ab6 (antibody)
# heavy: EVQLVESGGGLVQPGGSLRLSCTASGFTFSSFSMDWVRQAPGKGLEWVSYISPSADTIYYADSVKGRFTISRDNAKNTLYLQMNSLRAEDTAVYYCARGVLDYGDMLMPWGQGTLVTVSSASTKGPSVFPLAPCSRSTSESTAALGCLVKDYFPEPVTVSWNSGALTSGVHTFPAVLQSSGLYSLSSVVTVPSSSLGTKTYTCNVDHKPSNTKVDKRV[not shown - human IgG4 Fc with S228P (EU numbers)]
# light: DIQMTQSPSSLSASVGDRVTITCQASQDITNYLNWYQQKPGKAPKLLIYDASNLETGVPSRFSGSGSGTDFTFTISSLQPEDIATYYCQQADNHPPWTFGGGTKVEIKRTVAAPSVFIFPPSDEQLKSGTASVVCLLNNFYPREAKVQWKVDNALQSGNSQESVTEQDSKDSTYSLSSTLTLSKADYEKHKVYACEVTHQGLSSPVTKSFNRGEC
# Experiments:
# [1] = biological target: latent TGFβ1 from human, rat, and cynomolgus monkey (LN229 transfectants); assay: cell-based or functional assay
# [2] = biological target: all TGFβ1 LLCs in the LN229 activation assays; assay: cell-based or functional assay
binder,measurement,setting,value
B1,"IC50, activation of latent TGFβ1 in LN229/CAGA12 co-culture",[1],1.02 to 1.11 nM
same,"IC50, integrin-mediated activation in LN229/CAGA12 co-culture",[2],1.15 to 1.42 nM
